# Source: the supplement of paper PMC4967469
# Lines with a small IC50 respond at low doses; where the fit passes the top or lowest dose, that dose stands as a limit. For AUC the same curve is integrated over the 256-fold range of doses and scaled to a fraction: 1 means no effect, lower means more sensitive. For some assays here: Where the top dose is marked as inferred, it was derived from the fitted curves, not read from the paper.
# Experiments:
# Assay in all cases: Viability of human cancer cell lines after 72 h of drug (GDSC screen)
# ABT-263 = compound: CC1(C)CCC(c2ccc(Cl)cc2)=C(CN2CCN(c3ccc(C(=O)NS(=O)(=O)c4ccc(N[C@H](CCN5CCOCC5)CSc5ccccc5)c(S(=O)(=O)C(F)(F)F)c4)cc3)CC2)C1 [ABT-263]; conditions: top dose 2 µM; top dose inferred
# Protocol: (§1)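 Human cancer cell lines in 384-well plates, medium with 10% serum, drug for 72 h over a 256-fold dose range (nine 2-fold or five 4-fold steps up to the top dose). Adherent lines were fixed and stained with the nucleic acid dye Syto60, suspension lines read with resazurin; signal relative to control wells, capped at 0 and 100%. One two-parameter sigmoid per drug and line, fitted in a mixed model over all curves with the slope shared within a line.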
# GW 441756 = compound: Cn1cc(/C=C2\C(=O)Nc3cccnc32)c2ccccc21 [GW 441756]; conditions: top dose 2 µM; top dose inferred
# Protocol: as §1
# piperlongumine = compound: COc1cc(/C=C/C(=O)N2CCC=CC2=O)cc(OC)c1OC [piperlongumine]; conditions: top dose 10 µM
# Protocol: as §1
# PIK-93 = compound: CC(=O)Nc1nc(C)c(-c2ccc(Cl)c(S(=O)(=O)NCCO)c2)s1 [PIK-93]; conditions: top dose 20 µM
# Protocol: as §1
Cell Line,AUC (ABT-263),IC50 (ABT-263),AUC (GW 441756),IC50 (GW 441756),AUC (piperlongumine),IC50 (piperlongumine),AUC (PIK-93),IC50 (PIK-93)
"RCC-JF (kidney, adherent)",0.934,> 2000 nM,0.932,> 2000 nM,0.744,3470 nM,0.812,12500 nM
"AGS (stomach, adherent)",0.456,96 nM,0.955,> 2000 nM,–,–,0.884,17800 nM
"HCC1937 (breast, adherent)",0.844,1770 nM,0.919,> 2000 nM,0.816,6630 nM,0.829,15200 nM
"NCI-H647 (non-small cell lung carcinoma, adherent)",0.948,> 2000 nM,0.985,> 2000 nM,–,–,0.753,6950 nM
"NCI-H2452 (mesothelioma, adherent)",0.97,> 2000 nM,0.984,> 2000 nM,0.766,4370 nM,0.978,> 20000 nM
"HCC-15 (lung squamous cell carcinoma, adherent)",0.63,316 nM,0.938,> 2000 nM,0.868,> 10000 nM,0.934,> 20000 nM
"KYSE-140 (oesophagus, adherent)",0.937,> 2000 nM,0.826,1440 nM,–,–,0.817,13100 nM
"Hey (ovary, adherent)",0.925,> 2000 nM,0.882,1900 nM,0.755,3220 nM,0.791,8390 nM
"CAL-72 (osteosarcoma, adherent)",0.916,> 2000 nM,0.957,> 2000 nM,0.681,2200 nM,0.984,> 20000 nM
"SK-MES-1 (lung squamous cell carcinoma, adherent)",0.985,> 2000 nM,0.985,> 2000 nM,0.82,6420 nM,0.96,> 20000 nM
"SF295 (glioma, adherent)",0.937,> 2000 nM,0.982,> 2000 nM,0.779,4420 nM,0.837,14900 nM
"SU8686 (pancreas, adherent)",0.981,> 2000 nM,0.958,> 2000 nM,0.848,8840 nM,0.965,> 20000 nM
"SW1783 (glioma, adherent)",0.952,> 2000 nM,0.991,> 2000 nM,0.696,2080 nM,0.942,> 20000 nM
"HCT-15 (large intestine, adherent)",0.984,> 2000 nM,0.973,> 2000 nM,0.83,6790 nM,0.81,11300 nM
"NUGC-4 (stomach, adherent)",0.613,256 nM,0.954,> 2000 nM,0.78,4120 nM,0.843,14200 nM
"HDQ-P1 (breast, adherent)",0.903,> 2000 nM,0.975,> 2000 nM,0.845,9400 nM,0.894,> 20000 nM
"LN-405 (glioma, adherent)",0.983,> 2000 nM,0.982,> 2000 nM,0.818,7620 nM,0.86,> 20000 nM
"JHOS-3 (ovary, adherent)",0.908,> 2000 nM,0.949,> 2000 nM,0.833,9170 nM,0.784,11100 nM
"NCI-H1437 (lung adenocarcinoma, adherent)",0.968,> 2000 nM,0.945,> 2000 nM,0.817,5910 nM,0.913,> 20000 nM
"SK-N-SH (neuroblastoma, adherent)",0.903,> 2000 nM,0.98,> 2000 nM,0.625,1370 nM,0.779,8090 nM
"HCC-78 (lung adenocarcinoma, adherent)",0.972,> 2000 nM,0.983,> 2000 nM,0.889,> 10000 nM,0.839,17100 nM
"TMK-1 (stomach, adherent)",0.985,> 2000 nM,0.938,> 2000 nM,0.858,9040 nM,0.879,> 20000 nM

Cell Line,AUC (ABT-263),IC50 (ABT-263),AUC (GW 441756),IC50 (GW 441756),AUC (piperlongumine),IC50 (piperlongumine),AUC (PIK-93),IC50 (PIK-93)
"RCC-ER (kidney, adherent)",0.894,> 2000 nM,0.901,> 2000 nM,0.826,7070 nM,0.986,> 20000 nM
"MKN28 (stomach, adherent)",0.945,> 2000 nM,0.969,> 2000 nM,–,–,0.913,> 20000 nM
"Detroit562 (head and neck, adherent)",0.988,> 2000 nM,0.981,> 2000 nM,0.797,4510 nM,0.936,> 20000 nM
"BICR78 (head and neck, adherent)",0.928,> 2000 nM,0.784,991 nM,0.752,3790 nM,0.859,> 20000 nM
"KMRC-20 (kidney, adherent)",0.944,> 2000 nM,0.989,> 2000 nM,0.824,6070 nM,0.984,> 20000 nM
"HCC202 (breast, adherent)",0.954,> 2000 nM,0.889,> 2000 nM,0.802,7410 nM,0.661,4200 nM
"CAL-62 (thyroid, adherent)",0.983,> 2000 nM,0.977,> 2000 nM,0.628,1380 nM,0.874,17900 nM
"BT-20 (breast, adherent)",0.878,> 2000 nM,0.98,> 2000 nM,0.73,3360 nM,0.836,18100 nM
"COLO-205 (large intestine, suspension)",0.774,773 nM,0.987,> 2000 nM,0.823,5810 nM,0.867,17600 nM
"NCI-H2405 (lung adenocarcinoma, adherent)",0.898,> 2000 nM,0.982,> 2000 nM,0.746,3460 nM,0.919,> 20000 nM
"451Lu (melanoma, adherent)",0.913,> 2000 nM,0.974,> 2000 nM,0.805,4810 nM,0.898,> 20000 nM
"EMC-BAC-1 (lung adenocarcinoma, adherent)",0.843,1720 nM,0.968,> 2000 nM,0.82,6830 nM,0.68,4300 nM
"KYAE-1 (oesophagus, suspension)",0.821,1320 nM,0.985,> 2000 nM,0.786,4820 nM,0.512,1350 nM
"NCI-H661 (large cell lung carcinoma, adherent)",0.873,> 2000 nM,0.924,> 2000 nM,0.802,6160 nM,0.808,13100 nM
"RKN (ovary, adherent)",0.979,> 2000 nM,0.982,> 2000 nM,0.769,4000 nM,0.842,15200 nM
"WM793B (melanoma, adherent)",0.96,> 2000 nM,0.984,> 2000 nM,0.651,1720 nM,0.766,8140 nM
"8305C (thyroid, adherent)",0.964,> 2000 nM,0.98,> 2000 nM,0.772,5100 nM,0.847,> 20000 nM
"YH-13 (glioma, adherent)",0.923,> 2000 nM,0.975,> 2000 nM,0.807,5470 nM,0.68,4100 nM
"NY (osteosarcoma, adherent)",0.915,> 2000 nM,0.986,> 2000 nM,0.852,7560 nM,0.976,> 20000 nM
"KMS-11 (myeloma, suspension)",0.976,> 2000 nM,0.991,> 2000 nM,0.733,2550 nM,0.643,2910 nM
"NCI-H2172 (non-small cell lung carcinoma, adherent)",0.957,> 2000 nM,0.982,> 2000 nM,0.901,> 10000 nM,0.945,> 20000 nM
"NCI-H1563 (lung adenocarcinoma, adherent)",0.942,> 2000 nM,0.826,1530 nM,0.845,9310 nM,0.739,7000 nM

Cell Line,AUC (ABT-263),IC50 (ABT-263),AUC (GW 441756),IC50 (GW 441756),AUC (piperlongumine),IC50 (piperlongumine),AUC (PIK-93),IC50 (PIK-93)
"huH-1 (liver, adherent)",0.845,1970 nM,0.882,> 2000 nM,0.84,9430 nM,0.984,> 20000 nM
"23132-87 (stomach, adherent)",0.971,> 2000 nM,0.933,> 2000 nM,0.801,5100 nM,0.764,7540 nM
"HCC1500 (breast, adherent)",0.361,50.7 nM,0.988,> 2000 nM,0.834,6900 nM,0.919,> 20000 nM
"201T (lung adenocarcinoma, adherent)",0.979,> 2000 nM,0.872,> 2000 nM,–,–,0.853,> 20000 nM
"MIA-PaCa-2 (pancreas, adherent)",0.913,> 2000 nM,0.913,> 2000 nM,–,–,0.981,> 20000 nM
"SAT (head and neck, adherent)",0.855,> 2000 nM,0.796,1600 nM,–,–,0.831,> 20000 nM
"PA-1 (ovary, adherent)",0.929,> 2000 nM,0.993,> 2000 nM,–,–,0.611,2350 nM
"NCI-H2052 (mesothelioma, adherent)",0.822,1630 nM,0.983,> 2000 nM,–,–,0.944,> 20000 nM
"SK-GT-2 (stomach, adherent)",0.679,406 nM,0.973,> 2000 nM,0.777,4240 nM,–,–
"MKN7 (stomach, adherent)",0.935,> 2000 nM,0.981,> 2000 nM,0.826,9110 nM,–,–
"OCUM-1 (stomach, adherent)",0.575,206 nM,0.932,> 2000 nM,–,–,0.982,> 20000 nM
"CL-34 (large intestine, adherent)",0.959,> 2000 nM,0.98,> 2000 nM,0.821,6570 nM,–,–
"NCI-N87 (stomach, adherent)",0.934,> 2000 nM,0.967,> 2000 nM,0.932,> 10000 nM,–,–
"ZR-75-30 (breast, adherent)",0.967,> 2000 nM,0.862,> 2000 nM,0.912,> 10000 nM,–,–
"RH-18 (rhabdomyosarcoma, adherent)",0.416,71.2 nM,0.981,> 2000 nM,0.814,6490 nM,–,–
"KP-1N (pancreas, adherent)",0.979,> 2000 nM,0.986,> 2000 nM,0.723,2780 nM,–,–
"STS-0421 (soft tissue, adherent)",0.983,> 2000 nM,0.932,> 2000 nM,0.734,3290 nM,–,–
"NCI-H3122 (lung adenocarcinoma, adherent)",0.976,> 2000 nM,0.978,> 2000 nM,–,–,0.854,16500 nM
"KATOIII (stomach, semi-adherent)",0.986,> 2000 nM,0.947,> 2000 nM,0.866,7720 nM,–,–
"MEL-HO (melanoma, adherent)",0.922,> 2000 nM,0.984,> 2000 nM,0.574,995 nM,–,–
"SK-MEL-31 (melanoma, adherent)",0.898,> 2000 nM,0.914,> 2000 nM,0.804,6720 nM,–,–
"NCI-H1105 (small cell lung carcinoma, suspension)",0.308,40.4 nM,0.993,> 2000 nM,0.834,4950 nM,–,–
